Experimental data published in PubChem BioAssay AID488969 (Vanderbilt High Throughput Screening Facility, 2010).
Whole data set: some 110,000 compounds, median “z-score” near -0.1, cut for the highest 2% near 2. The list shows a part of the results.

Target: Metabotropic glutamate receptor 8 (Rattus norvegicus) (UniProt P70579)
Test: mGluR8 Gi/Go-coupled signaling modulation – cell-based, rat, thallium flux, HTS, primary screen (AID 488969)
Conditions: HEK293 rat mGluR8, GIRK (G protein-gated inwardly rectifying potassium channel) thallium flux, FluoZin2; at 10 µM; stronger effect = higher value; submaximal glutamate (EC20) added with thallium

Sequence of UniProt P70579 (P70579 whole entry, looked up): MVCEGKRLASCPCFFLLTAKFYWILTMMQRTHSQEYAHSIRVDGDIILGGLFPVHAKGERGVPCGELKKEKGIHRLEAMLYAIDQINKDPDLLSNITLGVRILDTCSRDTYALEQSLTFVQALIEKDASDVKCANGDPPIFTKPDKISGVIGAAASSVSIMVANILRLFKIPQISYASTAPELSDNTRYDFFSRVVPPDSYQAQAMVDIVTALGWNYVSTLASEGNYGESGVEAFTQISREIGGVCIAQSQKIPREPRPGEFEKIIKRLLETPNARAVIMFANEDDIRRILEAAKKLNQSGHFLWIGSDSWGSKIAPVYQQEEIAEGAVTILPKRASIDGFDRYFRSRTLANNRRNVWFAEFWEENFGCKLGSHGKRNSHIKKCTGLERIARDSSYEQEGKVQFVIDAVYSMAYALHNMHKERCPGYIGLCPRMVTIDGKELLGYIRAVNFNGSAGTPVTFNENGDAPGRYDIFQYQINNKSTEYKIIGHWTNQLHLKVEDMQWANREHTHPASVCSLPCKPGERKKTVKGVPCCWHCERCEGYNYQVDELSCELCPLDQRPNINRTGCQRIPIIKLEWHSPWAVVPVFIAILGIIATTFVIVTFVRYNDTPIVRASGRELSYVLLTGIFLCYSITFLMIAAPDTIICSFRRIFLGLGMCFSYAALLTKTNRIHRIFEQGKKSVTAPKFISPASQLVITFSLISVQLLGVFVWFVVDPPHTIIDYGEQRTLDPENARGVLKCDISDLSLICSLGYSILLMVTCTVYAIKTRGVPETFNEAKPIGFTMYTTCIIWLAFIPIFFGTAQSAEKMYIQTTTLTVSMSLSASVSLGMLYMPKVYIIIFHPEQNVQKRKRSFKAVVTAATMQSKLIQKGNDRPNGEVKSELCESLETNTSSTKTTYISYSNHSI

Question: Which z-score does the source give for `COc1ccc(-n2c(Cc3cccs3)nnc2SCC(=O)Nc2ccc3c(c2)OCCO3)cc1` here?
Answer: -0.305

Question: Which z-score does the source give for `CC(c1ccco1)N(C(=O)COc1ccccc1[N+](=O)[O-])c1ccccn1` (stereo not drawn) here?
Answer: 0.0781

Question: How did the z-score turn out when `Cc1ccc(C(=O)c2ccc(C(F)(F)F)cc2)cc1` was run?
Answer: 0.0388

Question: `CC1=NN(c2ccccc2)C(=O)/C1=C\c1cc(C)n(-c2ccccc2)c1C` was tested. Which z-score did it give?
Answer: -0.234

Question: For `CCOC(=O)N1CCN(C(=O)c2cnn3c(C(F)F)cc(-c4ccc(C)cc4)nc23)CC1`, which z-score is on record?
Answer: -2.42

Question: How did the z-score turn out when `CCOc1cc(/C=N/NC(N)=S)cc(Br)c1OCc1ccccc1C` was run?
Answer: -0.205

Question: How did the z-score turn out when `CCOC(=O)c1cnn(-c2nc(-c3ccc(C)cc3)cs2)c1C(F)(F)F` was run?
Answer: -0.287

Question: `O=S(=O)(NC1CCCC1)c1ccc(S(=O)(=O)N2CCN(c3ccccc3)CC2)cc1` was tested. Which z-score did it give?
Answer: 0.438

Question: `CCN(CC)C(=O)C1=C(C)NC(=O)NC1c1ccccc1F` (stereo not drawn) was tested. Which z-score did it give?
Answer: 0.355

Question: For `COc1ccc(OC)c(C2C3=C(CC(C)(C)CC3=O)Nc3nnnn32)c1` (stereo not drawn), which z-score is on record?
Answer: -0.0729

Question: `COc1ccc(CCN2C(=O)C3C4CC(C5C(C(=O)NN)=NOC45)C3C2=O)cc1OC` (stereo not drawn) was tested. Which z-score did it give?
Answer: 0.152

Question: With `Cc1cccnc1NC(=O)C1CCN(S(=O)(=O)c2ccc3c(c2)CCC(=O)N3)CC1` as the compound, how does the z-score read?
Answer: -0.244

Question: With `CCOc1cc(Br)ccc1S(=O)(=O)N1CC(C)OC(C)C1` (stereo not drawn) as the compound, how does the z-score read?
Answer: 0.199

Question: For `NC(=O)C(c1ccc(Sc2ccccc2)nn1)c1ccc(Cl)cc1Cl` (stereo not drawn), which z-score is on record?
Answer: 0.0127

Question: `O=C(C1CCN(S(=O)(=O)N2CCOCC2)CC1)N1CCN(Cc2ccc3c(c2)OCO3)CC1` was tested. Which z-score did it give?
Answer: 0.59

Question: `CNC(=O)CSc1nc2nn(-c3ccccc3)c(=O)c-2c2n1CCCCC2` was tested. Which z-score did it give?
Answer: -0.295

Question: For `OC(Cc1cccnc1)(Cc1cccnc1)c1cc2ccccc2[nH]1`, which z-score is on record?
Answer: -0.452

Question: With `CC(C)OCC(O)CS(=O)(=O)Cc1ccccc1` (stereo not drawn) as the compound, how does the z-score read?
Answer: 0.622

Question: With `O=C(NC(=S)NC1CCS(=O)(=O)C1)c1cccs1` (stereo not drawn) as the compound, how does the z-score read?
Answer: -0.0564

Question: `O=C(c1ccc(F)cc1)N1CCCCC(Sc2nnc3ccccn23)C1=O` (stereo not drawn) was tested. Which z-score did it give?
Answer: 0.0592

Question: `O=C(NCc1ccco1)c1ccccc1NS(=O)(=O)c1cccs1` was tested. Which z-score did it give?
Answer: -0.617

Question: `COc1ccc(N(C(=O)c2ccco2)S(=O)(=O)c2cc(OC)ccc2OC)cc1` was tested. Which z-score did it give?
Answer: -0.34

Question: `CCC(C)NS(=O)(=O)c1ccc(NC(=O)C(Sc2ccccc2)c2ccccc2)cc1` (stereo not drawn) was tested. Which z-score did it give?
Answer: 0.666

Question: How did the z-score turn out when `Cn1c(SCC(=O)Nc2nccs2)nnc1-c1ccncc1` was run?
Answer: -0.256

Question: For `CC(=O)c1ccc(N=Cc2c(O)n(-c3cc(Cl)ccc3N3CCOCC3)c(=O)c3ccccc23)cc1`, which z-score is on record?
Answer: -0.64

Question: With `CCN(Cc1ccccc1)C(=O)COc1cc(=O)n(CC)c2ccccc12` as the compound, how does the z-score read?
Answer: -0.186

Question: How did the z-score turn out when `O=C(c1ccc(N2CCCC2=O)cc1)N1CCCCCC1` was run?
Answer: -0.268

Question: `Cc1ccc2nc(SCC(=O)NCc3cccs3)c(C#N)cc2c1` was tested. Which z-score did it give?
Answer: -0.0306

Question: With `NC(=O)c1c(NC(=O)COC(=O)CSc2nnc(-c3ccc(Cl)cc3)o2)sc2c1CCC2` as the compound, how does the z-score read?
Answer: -0.775

Question: With `O=C(Cc1ccccc1)NCCc1cccc(Cl)c1` as the compound, how does the z-score read?
Answer: 0.142

Question: `CCn1c(=O)c(C(=O)NNS(=O)(=O)c2ccc(C)cc2)c(O)c2ccccc21` was tested. Which z-score did it give?
Answer: -0.0351

Question: With `O=C(Nc1ncc(Cc2cc(Cl)ccc2Cl)s1)c1ccc([N+](=O)[O-])cc1` as the compound, how does the z-score read?
Answer: -0.0183

Question: For `CC(C)c1ccc(S(=O)(=O)N2CCN(C(=O)c3cccc(F)c3)CC2)cc1`, which z-score is on record?
Answer: 0.325

Question: Which z-score does the source give for `CC(C)c1ccc(C(=O)NCCCc2ccccc2)cc1` here?
Answer: -0.477

Question: With `Cc1ccc2c(C(=O)CN3CCN(C4CCCCC4)CC3)c(C)[nH]c2c1` as the compound, how does the z-score read?
Answer: -0.0163

Question: How did the z-score turn out when `Oc1c(Cl)cc(Cl)cc1C=Nc1ccc2c(c1)OCCO2` was run?
Answer: -1.21

Question: With `CCOC(=O)Cn1c(S(=O)(=O)Cc2ccccc2)nc2ccccc21` as the compound, how does the z-score read?
Answer: 0.335

Question: How did the z-score turn out when `CN(C)c1ccc(N/C=C/C(=O)c2ccccc2)cc1` was run?
Answer: 0.836

Question: Which z-score does the source give for `COc1cc2c(cc1OC)C(C(=O)N1CCOCC1)C(c1cccs1)N(C)C2=O` (stereo not drawn) here?
Answer: -0.0306

Question: `CC(C)C(NC(=O)c1cccs1)c1nnc(SCC(=O)Nc2nccs2)n1C` (stereo not drawn) was tested. Which z-score did it give?
Answer: -2.33

Question: `C/C(=N\NC(=O)C1CCCN(S(=O)(=O)c2ccccc2)C1)c1ccccn1` (stereo not drawn) was tested. Which z-score did it give?
Answer: -0.113

Question: `CN=C(Nc1ccc(C(=O)OC)cc1)SC1CC(=O)N(c2ccccc2F)C1=O` (stereo not drawn) was tested. Which z-score did it give?
Answer: -0.129

Question: For `CC(=O)Nc1cc(-c2nn(CC(=O)N3CCCCC3)c(=O)c3ccccc23)ccc1N1CCOCC1`, which z-score is on record?
Answer: -0.158

Question: For `Cc1ccc(S(=O)(=O)N2CCCC(NC(=O)N3CCN(c4ccccc4)CC3)C2)cc1` (stereo not drawn), which z-score is on record?
Answer: 0.0203

Question: With `COC(=O)c1ccccc1NC(=O)c1ccc(Cn2cc(Cl)cn2)o1` as the compound, how does the z-score read?
Answer: 0.872

Question: How did the z-score turn out when `COc1ccc(C)cc1NC(=O)C1CCCN(S(=O)(=O)c2cnc[nH]2)C1` (stereo not drawn) was run?
Answer: 0.651

Question: How did the z-score turn out when `CCc1ccc(-c2nc(C(N)=O)c3[nH]c(=O)n(-c4ccccc4OC)c3n2)cc1` was run?
Answer: -0.23

Question: With `Cc1cc(C)c(S(=O)(=O)/N=C2/C=C(Sc3ncn[nH]3)C(=O)c3ccccc32)cc1C` as the compound, how does the z-score read?
Answer: -0.0789

Question: `CCC(C)C(NC(N)=O)C(=O)Nc1ccc(C)c(Cl)c1` (stereo not drawn) was tested. Which z-score did it give?
Answer: -0.12

Question: With `Cc1ccc(-c2nnc3n2CCCCC3)cc1` as the compound, how does the z-score read?
Answer: 0.0634

Question: How did the z-score turn out when `Cc1ccc(C(=O)ON=C2CCN(S(=O)(=O)c3ccccc3)CC2)cc1` was run?
Answer: 0.00667

Question: With `O=C(CCS(=O)(=O)Cc1ccccc1)Nc1nc2c(s1)CCCC2` as the compound, how does the z-score read?
Answer: -0.123

Question: With `CCOC(=O)c1nn(-c2ccc(Cl)cc2)c2nc(CC)c(C#N)c(=O)n12` as the compound, how does the z-score read?
Answer: -0.735
